Laboratory results taken from PubChem BioAssay AID1508623 (National Center for Advancing Translational Sciences (NCATS), 2021).
In all, about 48,000 compounds went through this assay and about 450 (0.94%) were called active. Inconclusive means that the source gave no clear call. Such entries were picked first, then a sample of the others. The call rests on the fitted dose curve; in most records, active means well fitted inhibition curve with a large enough effect; inconclusive means small, poorly fitted or top-dose-only effect; inactive means no such curve, though single readings can be large or run the other way. A potency beside an inconclusive call is a rough fit, not a confirmed value.

experiment: Primary qHTS for Identification of Small Molecule Inhibitors of Huntingtin Promoter Activity; settings: HEK293 HTT promoter firefly luciferase reporter (activity 0% = vehicle and -100% = no light), 24 h; series mostly up to 57.5 µM; further: nearly all actives have a fitted effect of over 50% in size
Method in brief: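 Firefly luciferase readout (Dual-Glo, 10 min RT) after 24 h, 37 °C compound exposure (final up to 57.5 uM) of HEK293 reporter cells cultured 24 h beforehand; PTC124 at 50 uM final as control inhibitor; activity scaled vehicle 0%, zero RLU -100%.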
Potency means the concentration at half of the fitted maximal effect; tags describe the fitted curve by direction and shape.

Compound	Potency
FC(F)(F)c1cccc(N2CCN(Cc3nnc(-c4ccc5c(c4)OCO5)o3)CC2)c1	inconclusive: 39.8 µM [inhibitor, single point]
Cc1ccccc1C(=O)Nc1ccc2nc(Nc3cccc(C(F)(F)F)c3)cc(C)c2c1	inconclusive: 22.4 µM [inhibitor, partial curve]
CC(C)(C)C1CCc2c(sc(NC(=O)CCC(=O)O)c2C(=O)Nc2ccccc2C(F)(F)F)C1 (stereo unspecified)	inconclusive: 31.6 µM [inhibitor, single point]
COc1cccc(CNC(=O)c2ccc(-c3nc(CS(=O)(=O)c4ccccc4)c(C)o3)cc2)c1	inconclusive: 35.5 µM [inhibitor, partial curve]
COC(=O)c1ccc2c(=O)n(CCCCCC(=O)N3CCN(c4cc(Cl)ccc4C)CC3)c(=O)[nH]c2c1	inconclusive: 20 µM [inhibitor, partial curve, poor fit]
O=C(Nc1cc(Cl)cc2c1[nH]c1cnccc12)c1cccnc1	inactive
Cc1cc(C)cc(-n2nnc(-c3nsc(NC(=O)c4ccccc4Cl)n3)c2C)c1	inactive
COc1ccccc1Nc1c2c(nc3ccc(NC(=O)c4cccc(OC)c4OC)cc13)CCCC2	inconclusive: 25.1 µM [inhibitor, partial curve, poor fit]
O=C(Nc1ccc(C(F)(F)F)cc1)C1CCCN(S(=O)(=O)c2cccc3cccnc23)C1 (stereo unspecified)	inconclusive: 35.5 µM [inhibitor, single point]
CC(=O)Nc1ccc(S(=O)(=O)NCc2ccc(C(=O)NCc3ccc(Cl)cc3)cc2)cc1	inconclusive: 39.8 µM [inhibitor, single point]
O=C(NCc1cccnc1)C(=O)NCC(c1cccnc1)N1CCN(c2ccccc2)CC1 (stereo unspecified)	inactive
O=C(NCc1ccccc1)C1CCN(C(=O)c2cnn(-c3ccccc3)c2-n2cccc2)CC1	inconclusive: 31.6 µM [inhibitor, partial curve]
COc1ccc2cc(C(=O)NCc3ccc4c(c3)CCN4C(=O)c3ccc(C)cc3)[nH]c2c1	inconclusive: 31.6 µM [inhibitor, partial curve, poor fit]
CNC(=O)CN1CCC(Oc2cc3c(Nc4cccc(Cl)c4F)ncnc3cc2OC)CC1	inconclusive: 0.306 µM [inhibitor, full curve, poor fit]
Cc1ccc(C)c(Cn2c(C)c(CNCc3ccc(F)cc3)c(C(=O)O)c2C)c1	inconclusive: 6.31 µM [inhibitor, partial curve, poor fit]
CCc1ccc(C2=CC(c3cccc(Br)c3)n3nnnc3N2)cc1 (stereo unspecified)	inconclusive: 25.1 µM [inhibitor, partial curve, poor fit]
